Key:
Test in all cases: SPR
2V-BB11-2V = 2V-BB11-2V (Squalus acanthias)
2V-E06-2V = 2V-E06-2V (Squalus acanthias | dogfish)
2V-BA11-2V = 2V-BA11-2V (Squalus acanthias)
humanized E06 BA11 = molecular target: humanized E06 BA11
humanized E06 v2.4-2G = molecular target: humanized E06 v2.4-2G
humanized E06 BB11 = molecular target: humanized E06 BB11
humanized E06 BB11, sequence (P07724 25-608): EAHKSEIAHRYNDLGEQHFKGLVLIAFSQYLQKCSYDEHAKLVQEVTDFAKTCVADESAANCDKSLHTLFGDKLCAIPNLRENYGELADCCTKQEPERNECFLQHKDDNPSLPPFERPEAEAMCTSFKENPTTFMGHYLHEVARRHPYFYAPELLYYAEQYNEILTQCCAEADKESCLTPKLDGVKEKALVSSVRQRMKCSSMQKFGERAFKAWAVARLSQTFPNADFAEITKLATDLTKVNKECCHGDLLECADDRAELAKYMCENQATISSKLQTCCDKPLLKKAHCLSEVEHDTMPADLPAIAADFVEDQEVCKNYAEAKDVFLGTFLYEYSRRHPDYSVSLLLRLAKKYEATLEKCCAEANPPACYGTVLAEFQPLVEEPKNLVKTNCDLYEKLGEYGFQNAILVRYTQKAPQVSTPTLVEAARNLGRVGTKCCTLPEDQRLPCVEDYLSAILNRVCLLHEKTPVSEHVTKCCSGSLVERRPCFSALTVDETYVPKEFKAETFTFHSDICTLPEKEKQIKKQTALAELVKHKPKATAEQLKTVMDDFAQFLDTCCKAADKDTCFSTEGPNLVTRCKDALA

2V-BA11-2V, sequence (P07724 25-608): as above
2V-BB11-2V, sequence (P07724 25-608): as above
2V-E06-2V, sequence (P07724 25-608): as above
humanized E06 BA11, sequence (P07724 25-608): as above
humanized E06 v2.4-2G, sequence (P07724 25-608): as above

B1: mouse serum albumin (natural protein)
chain: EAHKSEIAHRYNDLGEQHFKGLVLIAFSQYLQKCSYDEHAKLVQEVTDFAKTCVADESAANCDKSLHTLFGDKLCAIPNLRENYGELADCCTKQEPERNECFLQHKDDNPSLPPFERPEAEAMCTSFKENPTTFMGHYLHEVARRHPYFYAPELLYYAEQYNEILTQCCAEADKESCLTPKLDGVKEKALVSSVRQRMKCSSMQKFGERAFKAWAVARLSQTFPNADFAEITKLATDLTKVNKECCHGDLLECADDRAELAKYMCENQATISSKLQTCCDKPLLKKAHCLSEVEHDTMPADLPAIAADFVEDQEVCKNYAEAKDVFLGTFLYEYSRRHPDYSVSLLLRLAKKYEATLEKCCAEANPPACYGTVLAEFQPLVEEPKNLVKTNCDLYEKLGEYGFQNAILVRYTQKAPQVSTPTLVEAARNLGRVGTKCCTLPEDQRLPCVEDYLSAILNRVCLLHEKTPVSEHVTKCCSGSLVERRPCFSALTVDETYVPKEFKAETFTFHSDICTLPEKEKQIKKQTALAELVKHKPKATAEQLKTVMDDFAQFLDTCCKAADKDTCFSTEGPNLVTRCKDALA
2V-BB11-2V
  Kd: 0.38 nM
  koff: 0.00414 s⁻¹
2V-E06-2V
  Kd: 0.42 nM
  koff: 0.000771 s⁻¹
2V-BA11-2V
  Kd: 53.6 nM
  koff: 0.00154 s⁻¹
Humanized E06 BA11
  Kd: 99 nM
Humanized E06 v2.4-2G
  Kd: 2.15 nM
Humanized E06 BB11
  Kd: 5.39 nM
